These results are taken from US20150299764A1, “IMMOBILISED CYCLIN-DEPENDENT KINASE 4 FUSION PROTEINS AND USES THEREOF” (UNIVERSITE LIBRE DE BRUXELLES, priority 2012, published 2015).

In this data set the test system is 48-kDa fragment (amino acid 773-928) of pRb. Put plainly: pRb kinase assay on HEK293T cell extract bound to streptavidin-coated sepharose beads. Format: biochemical. The settings on record: transiently transfected HEK293T cells, P-Rb T826 immunoblot. The procedure:
In order to verify if the transgenes expressed in HEK293T cells after transient transfection could be immobilized on streptavidin-coated sepharose bead and were enzymatically active, HEK293T cells were cultivated and transfected with the indicated plasmids as described in Example 12.
After transfection, cells were washed with PBS and lysed on ice in 1 ml NP-40 lysis buffer as described in Example 11. The homogenized (glass/glass) cellular lysate was sonicated 3 times and stored at −20° C. […] After 3 h, beads bound with transgene are washed three times with cold NP-40 lysis buffer without inhibitors before enzymatic activities are measured.
The pRb kinase assay was performed on the cellular extract bound to the streptavidin-coated sepharose beads as described previously (Coulonval et al., 2003, Exp. Cell Res., 291, 135-149). […] Proteins were resolved by SDS-PAGE and transferred on PVDF membranes (Perkin Elmer) before the phosphorylation on T826 of the pRb fragment was detected using the phosphor-specific pRb (T826) antibody (Thermo Fisher). […]
The pRb kinase assay was performed on the cellular extract bound to the streptavidin-coated sepharose beads (GE Healthcare) as described previously (Coulonval et al., 2003, Exp. Cell Res., 291, 135-149). […] Total GST-Rb load of the membranes was quantitated using the mouse anti-GST antibody (Pierce). […]

B1: D1L1K4: cyclin D1 and CDK4 connected by the linker L1, SEQ ID NO. 7 (protein)
chain: [about 300 residues not given here]ASKGGGGSGGGGSGGGGSMATSRYEPVAEIGVGAYGTVYKARDPHSGHFVALKSVRVPNGGGGGGGLPISTVREVALLRRLEAFEHPNVVRLMDVCATSRTDREIKVTLVFEHVDQDLRTYLDKAPPPGLPAETIKDLMRQFLRGLDFLHANCIVHRDLKPENILVTSGGTVKLADFGLARIYSYQMALTPVVVTLWYRAPEVLLQSTYATPVDMWSVGCIFAEMFRRKPLFCGNSEADQLGKIFDLIGLPPEDDWPRDVSLPRGAFPPRGPRPVQSVVPEMEESGAQLLLEMLTFNPHKRISAFRALQHSYLHKDEGNPE
For the molecule B1, the “Rb kinase activity of the immobilized fusion protein” value is reported as “active”.
